This is an account of results in paper PMC5836133.

The other results are listed elsewhere or left out. At the low end of the ranking the order means little.

This assay has as its system T1, GST-NbGlk1(82-244).
T1 sequence: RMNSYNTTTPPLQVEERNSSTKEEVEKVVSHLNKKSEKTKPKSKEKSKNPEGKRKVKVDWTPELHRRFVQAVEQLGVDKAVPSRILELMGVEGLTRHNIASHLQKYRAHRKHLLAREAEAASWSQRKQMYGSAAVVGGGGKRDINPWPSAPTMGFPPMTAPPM
Nature of the assay: protein-binding microarray.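 Also: rank-based score ranging −0.5 to +0.5 with E above 0.45 taken as significant binding.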 The conditions noted are these: NbGlk1 is a Golden2-like transcription factor of Nicotiana benthamiana; high values mean tight binding; most listed sequences are background and not binding sites; double strand, one strand shown.
For the sequence ACCCACCG, the binding signal was -0.0966 E-score.
For ACTACCCC the value was -0.202 E-score; for ACCTCTGA, 0.00915 E-score; for ATACCGGA, 0.000813 E-score.
Turning to AACTCAGG, the binding signal came out at 0.0375 E-score.
Next, ATAGGCTG: -0.135 E-score.
Take ATAAAGTC: the binding signal is -0.169 E-score.
As for AGAGTGCA, the binding signal is -0.0203 E-score.
In turn, AATTAGAT displayed a binding signal of 0.224 E-score.
For AATGCCCG the value was -0.158 E-score; for AAGATAAT, 0.221 E-score; for AAAAATAC, 0.0995 E-score.
Take CAGAGGGA: the binding signal is -0.0455 E-score.
For AGGTTGCA, the binding signal is -0.15 E-score.
Next, ACTAACGC: -0.137 E-score.
With ACGGGTTG, the binding signal was -0.17 E-score.
ACTCTTAC: the binding signal came out at 0.0157 E-score.
ATTCTCCC displayed a binding signal of 0.255 E-score.
For AACAATTA the value was 0.128 E-score; for AGGTTGTG, -0.0975 E-score; for CAGAGCTA, -0.0747 E-score.
Next, ACGGTACT: -0.0728 E-score.
For the sequence ACACAACC, the binding signal is -0.0794 E-score.
In turn, ATCCCGGC yielded a binding signal of 0.00281 E-score.
For AGTGATAC the value was 0.0957 E-score; for ACTTTGTG, -0.0662 E-score.
Consider ACGTTCGA, for which the binding signal was -0.0635 E-score.
ACTTCACA had a binding signal of 0.102 E-score.
For the sequence AGTAGAGC, the binding signal was -0.157 E-score.
In turn, ACTAAAGA had a binding signal of 0.103 E-score.
AGGTAAAC displayed a binding signal of 0.0486 E-score.
Next, CAACTAAG: -0.224 E-score; AAGTTCCG: -0.058 E-score.
As for CACCTTGC, the binding signal was -0.206 E-score.
AGCATATC came in with a binding signal of 0.352 E-score.
As for AGAGCGGC, the binding signal is -0.271 E-score.
Take ATGGTAAC: the binding signal was -0.115 E-score.
Turning to ACTCGTCT, the binding signal was -0.101 E-score.
In the case of AACCTGAC, the binding signal is -0.216 E-score.
On to AAACGGAT, for which the binding signal was 0.245 E-score.
Next, AGAACCAG: -0.159 E-score.
Take ACGCCCAG: the binding signal is -0.215 E-score.
Regarding ATTTCCCA, the binding signal was 0.329 E-score.
ATATGGTC came in with a binding signal of 0.102 E-score.
As for AGCGCAAC, the binding signal is -0.0604 E-score.
Consider AAAAGGAT, for which the binding signal was 0.151 E-score.
Next, AACTGCGA: -0.00729 E-score; AGCTCGAT: -0.0429 E-score.
ATATTGGG showed a binding signal of 0.111 E-score.
The sequence AAGGTATC came in with a binding signal of 0.176 E-score.
CACAGTAA showed a binding signal of 0.0441 E-score.
On to CAGACTAA, for which the binding signal is -0.155 E-score.
Turning to ATACGATC, the binding signal worked out at 0.247 E-score.
For ACCTCGAA the value was -0.0229 E-score; for ATTACCGC, 0.289 E-score; for CAATCCCA, 0.279 E-score.
On to AGCATGCA, for which the binding signal is -0.157 E-score.
Next, CAATTCAG: 0.0635 E-score; ATGGTCCC: -0.121 E-score; AGGCTTAA: -0.141 E-score.
As to CAATCTAG, the binding signal came out at 0.374 E-score.
For ATAACGCG the value was 0.0605 E-score; for AGCACAAC, -0.0284 E-score.
For the sequence AAGTTCAT, the binding signal was -0.0297 E-score.
In the case of AGTCAGTC, the binding signal is -0.223 E-score.
ACTAAAAT: the binding signal was 0.281 E-score.
CACGCGTG displayed a binding signal of 0.0359 E-score.
For the sequence ACTTGTGC, the binding signal was -0.218 E-score.
For the sequence AGCGTCAG, the binding signal was -0.154 E-score.
As to CAAGCCTC, the binding signal was -0.288 E-score.
Next, AAGCACTA: -0.0739 E-score; AAAATTTT: 0.271 E-score; ACAAAAAG: 0.0571 E-score.
Consider AACTTACT, for which the binding signal was -0.0295 E-score.
The sequence ATGCGAGA showed a binding signal of 0.0136 E-score.
Next, ACGCGTAG: -0.00126 E-score; AGGACCAA: -0.162 E-score.
In turn, ATAAAACA had a binding signal of 0.0799 E-score.
For ATTGTGAA, the binding signal is 0.169 E-score.
ACTGCGAC: the binding signal is -0.138 E-score.
AGTCTAAG registered a binding signal of 0.0387 E-score.
In turn, AGATTGGC yielded a binding signal of 0.173 E-score.
As to ACTTCGGA, the binding signal was -0.136 E-score.
For the sequence AAAACGTT, the binding signal is -0.0539 E-score.
With AAAAGTCC, the binding signal was -0.137 E-score.
For the sequence AACGTTTG, the binding signal was -0.0367 E-score.
Consider ACTGCATA, for which the binding signal amounted to 0.0335 E-score.
ATACTCGC displayed a binding signal of 0.102 E-score.
Consider CAATTCGG, for which the binding signal worked out at 0.0142 E-score.
For ACCCGGAT, the binding signal was 0.197 E-score.
In turn, ATGCGCGC came in with a binding signal of 0.011 E-score.
Next, AATTGGGT: 0.0071 E-score; AAGGACAC: -0.249 E-score.
AAGATCCG showed a binding signal of 0.332 E-score.
Next, AGGATTGC: 0.45 E-score; CAGACTGC: -0.211 E-score.
As for CAAATTGC, the binding signal stood at 0.0752 E-score.
ATATCTTA showed a binding signal of 0.408 E-score.
Next, AGATCATG: 0.121 E-score; AGGGATGA: -0.0992 E-score; AATCTATC: 0.366 E-score.
Consider ACTACTTC, for which the binding signal is -0.00335 E-score.
Take ATCGCCCA: the binding signal was found to be 0.175 E-score.
AAGAGAAC: the binding signal is -0.118 E-score.
Consider ACGAGCCA, for which the binding signal is -0.172 E-score.
For AACGTCAT the value was -0.0559 E-score.
Next, AAGACTCT: -0.238 E-score; CACTCGTA: 0.0544 E-score.
On to CACGCGGA, for which the binding signal was -0.0595 E-score.
The sequence ACCTACAT had a binding signal of 0.102 E-score.
ATGCACGG: the binding signal was -0.0415 E-score.
With ATGGGCGA, the binding signal is -0.0147 E-score.
For CAGCCCCC the value was -0.332 E-score; for AGTTACTG, 0.0146 E-score; for ACGGACCT, -0.323 E-score.
Sequence ATTTAGCA yielded a binding signal of 0.136 E-score.
As to AGTTAACT, the binding signal was -0.051 E-score.
For ACGTGAAT the value was 0.0505 E-score; for ACCCAAGC, -0.257 E-score.
Turning to CACCCAAC, the binding signal was -0.112 E-score.
Consider AGACAGTC, for which the binding signal was -0.29 E-score.
In the case of CACAACGA, the binding signal is 0.176 E-score.
As to ATTAGGCG, the binding signal was -0.023 E-score.
For ACTAGCCA, the binding signal is -0.177 E-score.
Regarding ATTAAACC, the binding signal is -0.0527 E-score.
AATCTAGT returned a binding signal of 0.421 E-score.
AGGCCCTG: the binding signal was -0.271 E-score.
For ACGACCCG, the binding signal was -0.144 E-score.
Next, AGCTTCGA: -0.162 E-score; AGGCACCA: -0.0285 E-score.
In the case of CAACGTCC, the binding signal is -0.257 E-score.
Consider CACACATA, for which the binding signal came out at 0.135 E-score.
In turn, AAAAATCG registered a binding signal of 0.389 E-score.
Next, CACTGAGC: -0.252 E-score; ATAGCGGC: -0.0415 E-score.
In the case of CAGCCACA, the binding signal is -0.0728 E-score.
Next, AAAAACCA: -0.023 E-score.
On to ATAATCTC, for which the binding signal is 0.346 E-score.
Next, ACTCAAGC: -0.117 E-score; AATAGTGA: -0.136 E-score; ATGTGCCA: -0.0502 E-score.
With ATCGGAAC, the binding signal amounted to 0.0791 E-score.
In the case of ACACGGCA, the binding signal was -0.088 E-score.
For ATGTTCCC, the binding signal is -0.0564 E-score.
As for AACCCTGT, the binding signal is -0.148 E-score.
Take AAAGCCGT: the binding signal is -0.257 E-score.
Turning to AAAGGCCA, the binding signal was -0.21 E-score.
ACAACATG: the binding signal was -0.0545 E-score.
Consider ACATGGGC, for which the binding signal was -0.116 E-score.
AAGAAACG showed a binding signal of 0.0189 E-score.
In turn, ATATCCAA displayed a binding signal of 0.407 E-score.
Take AATGATGG: the binding signal is 0.0186 E-score.
Next, ACAGAATA: 0.257 E-score.
As to AGAGTGCG, the binding signal was -0.154 E-score.
In the case of ACTCACCC, the binding signal is -0.208 E-score.
In the case of AAAGTGAC, the binding signal is -0.0637 E-score.
In turn, ATCCGGGA returned a binding signal of 0.241 E-score.
Next, AGTGTTAT: -4.16e-05 E-score; AGCAAGTC: -0.165 E-score.
Next, AAGCGTTC: -0.094 E-score.
The sequence ACGTAACC had a binding signal of 0.0963 E-score.
For the sequence AGGGGTCG, the binding signal is -0.248 E-score.
As to AGTAACGC, the binding signal was -0.157 E-score.
As to CAAGCTGA, the binding signal was -0.187 E-score.
Consider ATGCTAGG, for which the binding signal is -0.0271 E-score.
As for AATACCAC, the binding signal worked out at 0.152 E-score.
For ATCTACAC the value was 0.34 E-score; for ACGGTCTA, -0.0505 E-score; for AGCAAACA, -0.0626 E-score.
Consider ACCTCTGC, for which the binding signal was -0.23 E-score.
AAAAGCAA: the binding signal was 0.104 E-score.
As to ACCGTTCG, the binding signal is -0.207 E-score.
